# Source: PubChem BioAssay AID1963576 (National Center for Advancing Translational Sciences (NCATS), 2024)
# Out of some 46,000 compounds screened, about 60 (0.1%) were called active. Another 3% or so got no clear call; they are omitted. Calls come from the whole dose curve; as a rule, active = well fitted inhibition curve with a large enough effect; inconclusive = small, poorly fitted or top-dose-only effect; inactive = no such curve, though single readings can be large or run the other way. The list shows a part of the results.
# Assay: Primary qHTS assay for Inhibitors of ovarian cancer metastasis using an organotypic tumor microenvironment (TME) model.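 For activity change, negative = inhibition: plate controls were DMSO wells for no effect and tomatine positive control wells for full effect.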 Note: nearly all actives have a fitted effect of over 65% in size.
# Details: SKOV3ip1-GFP adhesion/invasion on 3D omental model, fluorescence; series mostly up to 45.8 µM; activity change, negative = inhibition: at the top concentration
# How it was run: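 Primary human omental fibroblast/mesothelial 3D culture pre-formed 48 h. SKOV3ip1-GFP cells added with compounds (0.36-46 umol/L), incubated 2 h RT/16 h 37 C, fixed; GFP cells quantified at 488/509 nm.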
SMILES,"activity change, negative = inhibition",outcome
COc1ccc(NC(=O)CSc2ncc3c(n2)-c2ccccc2N(Cc2ccc(C)cc2)S3(=O)=O)cc1Cl,inactive: 3.53%,
Cc1ccc(N(C)C(=O)c2sc3nc4n(c(=O)c3c2C)CCCC4)cc1C,,inactive
CCOC(=O)C1CCN(C(=O)c2cc3sc(C)cc3n2C)CC1,inactive: -2.3%,
CCOc1ccc(-c2cccc(NS(=O)(=O)c3ccc(C)s3)c2)nn1,inactive: 3%,
NC(=O)C1CCN(S(=O)(=O)c2cc3c(cc2Cl)NC(=O)CO3)CC1,,inactive
O=C(CCC1N=C2c3ccccc3N=C(SCC(=O)Nc3cccc(Cl)c3)N2C1=O)NCc1ccco1 (configuration not stated),inactive: 5.93%,
CCCCOc1ccc(C(=O)Nc2ccc3c(c2)CCCN3C(=O)c2cccs2)cc1,inactive: 0.041%,
Cc1nc2nc(NC(=O)c3ccc(C(C)(C)C)cc3)[nH]n2c(=O)c1C,inactive: 7.12%,
CCOC(=O)C1CCC(CN(Cc2ccc(Cl)cc2)S(=O)(=O)c2cccc(Cl)c2C)CC1 (configuration not stated),inactive: 1.27%,
O=C(CSc1ncc(-c2ccccc2)[nH]1)Nc1ccccc1,inactive: -8.73%,
CCN1C(=O)c2ccccc2S(=O)(=O)c2ccc(C(=O)NCc3ccccc3)cc21,,inactive
CCOC(=O)C1CCN(C(=O)c2ccccc2NC(=O)c2nsc3ccccc23)CC1,inactive: 25%,
CCOc1ccc(NS(=O)(=O)c2c(C)nc3sc(C)c(C)n3c2=O)cc1,,inactive
CC(C)N(Cc1ccccc1)C(=O)c1nc(-c2ccc(Cl)cc2)n2c1CCCCC2,,inactive
CCn1cc(C(=O)NCCCOC(C)C)c(=O)c2cc(S(=O)(=O)N3CCOCC3)ccc21,inactive: 1.45%,
CCc1ccc(OCC2c3cc(OC)c(OC)cc3CCN2C(=O)c2ccc(S(=O)(=O)N3CCCC3)cc2)cc1 (configuration not stated),inactive: 0.358%,
COC(=O)c1ccc2c(=O)n(CCCCCC(=O)NCCc3ccccc3)c(=O)[nH]c2c1,inactive: 23.5%,
COc1cccc(CN2C(=O)CN(C3CCCCC3)C(=O)C2c2ccc(OC(C)C)c(OC)c2)c1 (configuration not stated),inactive: -24.5%,
COc1cccc(NC(=O)c2c(C)nn(-c3cccc(C)c3)c2-n2cccc2)c1,,inactive
O=C(Cn1ccc2cc(S(=O)(=O)N3CCCCCC3)ccc21)NCc1ccccc1Cl,inactive: 3.23%,
Cc1cc(NC(=O)N2CCC(CN3CCCCCC3)CC2)ccc1Br,,inactive
COc1ccc(-c2nc(Cn3c(=O)cc(C)c4c(C)nn(-c5ccccc5)c43)c(C)o2)cc1OC,inactive: -5.26%,
O=C(CSc1nc2c([nH]c3ccccc32)c(=O)n1-c1ccccc1)Nc1ccc2c(c1)OCO2,inactive: 5.27%,
COc1ccc(N2CCN(C(CNS(=O)(=O)c3ccc(OC)c(C)c3)c3ccco3)CC2)cc1 (configuration not stated),inactive: -1.94%,

SMILES,"activity change, negative = inhibition",outcome
Cc1cccn2c(=O)c3cc(C(=O)NCC(C)C)sc3nc12,inactive: -16%,
COc1ccc(C)cc1-n1c(-c2ccc(Cl)cc2)cc2c1CC(C)(C)CC2=O,inactive: -17%,
CCC1Sc2ccccc2N(CC(=O)NCc2ccc(C)cc2)C1=O (configuration not stated),,inactive
O=S(=O)(c1ccc(Cl)cc1)c1nnn2c1nc(NC1CCCC1)c1sccc12,inactive: -5.15%,
CN(CCOc1ccc(CC2SC(=O)NC2=O)cc1)c1ccccn1 (configuration not stated),inactive: -5.08%,
COc1ccc(CCNC(=O)CCc2cn(Cc3ccccc3Cl)c3ccccc23)c(OC)c1,,inactive
O=C(NCCc1ccc(Cl)cc1)C1CCN(Cc2cc3ccccc3n2Cc2ccccc2)CC1,inactive: -8.62%,
CCOc1ccc(NC(=O)c2c(C)oc3nc(C)nc(N4CCCC4)c23)cc1,inactive: 19%,
COc1cccc(C(=O)Nc2ccc3nc(SCC(=O)N(C)c4ccccc4)sc3c2)c1,inactive: -8.39%,
Cc1ccc(CNC(=O)c2ccc(CSc3nc4ccncc4n3Cc3ccc(C)cc3)cc2)cc1,inactive: -10.9%,
Fc1ccc(CN2CCc3nc(N4CCN(c5ccccc5F)CC4)ncc3C2)c(F)c1,inactive: -8.07%,
Cc1ccc(Cc2nc3ccccc3nc2SCC(=O)N2CCC(C)CC2)cc1,inactive: 3.22%,
Cc1ccc(NC(=O)Cn2c(=O)n(-c3ccc(C)cc3)c(=O)c3c2cnn3C)cc1,inactive: -4.39%,
Cc1ccc(-n2nc(C)c3c(C)c(CCC(=O)NC(C)c4ccccc4)c(C)nc32)cc1 (configuration not stated),inactive: 1.45%,
COc1ccccc1CCNC(=O)c1cccn1-c1nnc(N2CCCC2)s1,inactive: 5.31%,
Cc1cc(C)c(NC(=O)Cn2c(=O)oc3cc(S(=O)(=O)N4CCCCCC4)ccc32)c(C)c1,,inactive
CCOc1ccc(-c2cc(NC(=O)c3ccccc3)c(C(=O)OC)s2)cc1,inactive: 2.1%,
CCOc1ccc(C2C(C(=O)Nc3ccccc3)=C(C)Nc3nc(-c4ccccc4Cl)nn32)cc1OC (configuration not stated),inactive: 5.03%,
COc1ccc(CNC(=O)Cn2c(=O)oc3cc(S(=O)(=O)NCc4ccccc4)ccc32)cc1,inactive: -0.919%,
Cc1ccccc1NC(=O)C(=O)NCC(c1ccc2c(c1)OCO2)N1CCN(c2ccccc2)CC1 (configuration not stated),inactive: 12.7%,
Cc1ccc(Cl)cc1N1CCN(c2ncnc3c2nc2n3CCCC2)CC1,inactive: -3.78%,
CCCN(C(=O)c1cc(S(=O)(=O)N2CCc3ccccc32)cn1C)c1ccc(OCC)cc1,inactive: -7.34%,
CCN1CCN(Cc2c(O)ccc3oc(C)c(C(=O)Nc4cccc(Cl)c4C)c23)CC1,,inactive
